According to the supplement of paper PMC4967469:
A lower IC50 marks a more sensitive line; where the fit passes the top or lowest dose, that dose stands as a limit. For AUC the same curve is integrated over the 256-fold range of doses and scaled to a fraction: 1 means no effect, lower means more sensitive. Where the top dose is marked as inferred, it was derived from the fitted curves, not read from the paper. For part of these data: Where an entry number is given, a second screen of the drug exists; the two often differ.

Columns and labels:
Test in all cases: Viability of human cancer cell lines after 72 h of drug (GDSC screen)
AZD6482 = compound: Cc1cc([C@@H](C)Nc2ccccc2C(=O)O)c2nc(N3CCOCC3)cc(=O)n2c1 [AZD6482]
Experimental: (§1)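 Human cancer cell lines in 384-well plates, medium with 10% serum, drug for 72 h over a 256-fold dose range (nine 2-fold or five 4-fold steps up to the top dose). Adherent lines were fixed and stained with the nucleic acid dye Syto60, suspension lines read with resazurin; signal relative to control wells, capped at 0 and 100%. One two-parameter sigmoid per drug and line, fitted in a mixed model over all curves with the slope shared within a line.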

MLN4924 = compound: NS(=O)(=O)OC[C@@H]1C[C@@H](n2ccc3c(N[C@H]4CCc5ccccc54)ncnc32)C[C@@H]1O [MLN4924]; details: top dose 1 µM; top dose inferred
Experimental: as §1

BMN-673 = compound: Cn1ncnc1[C@H]1c2n[nH]c(=O)c3cc(F)cc(c23)N[C@@H]1c1ccc(F)cc1 [BMN-673]; details: top dose 10 µM; top dose inferred
Experimental: as §1

[1] = top dose 5 µM, screen: GDSC drug entry 1066, top dose inferred
[2] = top dose 5.12 µM, screen: GDSC drug entry 156

Cell Line	AUC (AZD6482; [1])	IC50 (AZD6482; [1])	AUC (AZD6482; [2])	IC50 (AZD6482; [2])	AUC (MLN4924)	IC50 (MLN4924)	AUC (BMN-673)	IC50 (BMN-673)
RCC10RGB (kidney, adherent)	0.696	1.91 µM	0.653	1.29 µM	0.944	> 1 µM	0.913	> 10 µM
RCH-ACV (B-cell leukaemia, suspension)	0.657	0.781 µM			0.822	0.454 µM	0.438	0.437 µM
RD (rhabdomyosarcoma, adherent)	0.911	> 5 µM	0.936	> 5.12 µM	0.895	> 1 µM	0.805	5.63 µM
REH (B-cell leukaemia, suspension)	0.849	3.53 µM	0.835	3.17 µM	0.908	> 1 µM	0.665	1.76 µM
RERF-GC-1B (stomach, adherent)			0.916	> 5.12 µM	0.981	> 1 µM	0.908	> 10 µM
RF-48 (stomach, adherent)	0.913	> 5 µM	0.788	2.55 µM	0.888	> 1 µM	0.983	> 10 µM
RH-18 (rhabdomyosarcoma, adherent)	0.923	> 5 µM			0.952	> 1 µM	0.942	> 10 µM
RH-41 (rhabdomyosarcoma, adherent)	0.973	> 5 µM	0.931	> 5.12 µM	0.772	0.326 µM	0.935	> 10 µM
RMG-I (ovary, adherent)			0.871	> 5.12 µM	0.83	0.774 µM	0.934	> 10 µM
ROS-50 (B-cell leukaemia, suspension)	0.96	> 5 µM	0.965	> 5.12 µM	0.974	> 1 µM	0.982	> 10 µM
RPMI-2650 (head and neck, adherent)	0.956	> 5 µM	0.893	> 5.12 µM	0.895	> 1 µM	0.603	1.23 µM
RPMI-6666 (Hodgkin lymphoma, suspension)	0.707	1.37 µM	0.577	0.544 µM	0.806	0.635 µM	0.742	3.6 µM
RT-112 (bladder, adherent)	0.923	> 5 µM	0.949	> 5.12 µM	0.914	> 1 µM	0.952	> 10 µM
Raji (Burkitt lymphoma, suspension)	0.983	> 5 µM	0.97	> 5.12 µM	0.835	0.598 µM	0.605	1.19 µM
Ramos-2G6-4C10 (Burkitt lymphoma, suspension)	0.826	2.46 µM	0.937	> 5.12 µM	0.935	> 1 µM	0.96	> 10 µM
SAS (head and neck, adherent)	0.85	4.46 µM	0.983	> 5.12 µM	0.549	0.0865 µM	0.728	3.03 µM

Cell Line	AUC (AZD6482; [1])	IC50 (AZD6482; [1])	AUC (AZD6482; [2])	IC50 (AZD6482; [2])	AUC (MLN4924)	IC50 (MLN4924)	AUC (BMN-673)	IC50 (BMN-673)
SBC-5 (small cell lung carcinoma, adherent)	0.928	> 5 µM	0.917	> 5.12 µM	0.824	0.454 µM	0.674	1.72 µM
SCC-9 (head and neck, adherent)	0.619	0.731 µM	0.51	0.343 µM	0.979	> 1 µM	0.907	> 10 µM
SCC-25 (head and neck, adherent)	0.83	3.71 µM	0.941	> 5.12 µM	0.938	> 1 µM	0.968	> 10 µM
SCH (stomach, adherent)	0.858	4.63 µM	0.988	> 5.12 µM	0.987	> 1 µM	0.887	> 10 µM
SF539 (glioma, adherent)	0.935	> 5 µM	0.958	> 5.12 µM	0.648	0.153 µM	0.718	2.4 µM
SISO (cervix, adherent)			0.907	> 5.12 µM	0.616	0.128 µM	0.702	2.25 µM
SK-HEP-1 (liver, adherent)	0.947	> 5 µM	0.916	> 5.12 µM	0.642	0.15 µM	0.772	3.62 µM
SK-MEL-24 (melanoma, adherent)			0.978	> 5.12 µM	0.88	> 1 µM	0.816	7.13 µM
SK-MEL-31 (melanoma, adherent)	0.966	> 5 µM			0.946	> 1 µM	0.977	> 10 µM
SK-N-FI (neuroblastoma, adherent)	0.962	> 5 µM	0.989	> 5.12 µM	0.973	> 1 µM	0.977	> 10 µM
SK-OV-3 (ovary, adherent)	0.847	> 5 µM	0.663	1.02 µM	0.924	> 1 µM	0.799	6.27 µM
SK-UT-1 (soft tissue, adherent)	0.932	> 5 µM	0.805	2.32 µM	0.562	0.0906 µM	0.653	1.59 µM
SKG-IIIa (cervix, adherent)	0.921	> 5 µM	0.947	> 5.12 µM	0.916	> 1 µM	0.941	> 10 µM
SKN-3 (head and neck, adherent)	0.889	> 5 µM	0.95	> 5.12 µM	0.703	0.26 µM	0.835	8.3 µM
SN12C (kidney, adherent)	0.85	4.55 µM	0.967	> 5.12 µM	0.908	> 1 µM	0.796	5.33 µM
SNU-61 (large intestine, adherent)	0.963	> 5 µM			0.976	> 1 µM	0.979	> 10 µM
